# Assay results as given in the supplement of paper PMC11417369.
# ± gives the standard deviation of the averaged measurements. Some of the results follow.
# Test system: PfAP2-G AP2 domain (GST-tagged)
# Experiment: gcPBM binding intensity (ln(normalized median fluorescence intensity)); higher = stronger DNA binding
# In short: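 GST-fused DNA-binding domains of P. falciparum, expressed in E. coli, were applied at about 25 μg on average for 1 h to an Agilent 4 × 180k array of primer-extended double-stranded 36-bp intergenic genomic probes and negative controls. Binding intensity is the highest Masliner-normalised natural-log median intensity across replicate spots of either probe orientation, measured with Alexa488 anti-GST antibody and a 488 nm scan.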
row,Sequence,gcPBM binding intensity (ln)
1,AGTATACACAGACACACACACACATATATATATATA [CACACA_site8510],10.2 ± 0.31
2,TTTTTATGGACTATGGTGCATTATATATAAATGAAA [GTGCAC_site9557],10.3 ± 0.38
3,CAAAAATATTATTATAGTACATAAATAATATATTTT [XGTACX_site6902],10.9 ± 0.64
4,TAAAAATAGGAGTGTGTGCACATAAATTATATACTA [GTGCAC_site9405],10.5 ± 0.31
5,TTACTTAATAGACACACACACAAAAAAAAAAAAAAA [CACACA_site6572],10 ± 0.65
6,CACATACATAAATACACACACAAAATAATAAAATAA [CACACA_site5304],10.2 ± 0.18
7,ATATCAAATTCTGAAACACACAAAATTACACCTCTA [CACACA_site169],10.03 ± 0.071
8,TTTTCGATATGCTTTTTTTTTCTACTGTCTTTTTAA [TGCATGCA_negctrl_site54],9.89 ± 0.13
9,TTTTCATTTTTCTTTACACACATATATATATATATA [CACACA_site2236],10.2 ± 0.13
10,TATATATATATTTTTTGTACATATTATATAATATAC [XGTACX_site5187],11 ± 0.54
11,AAAAAAAAAAAAAAAAAAAAACACCCAAAAAAATAT [XGTACX_negctrl_site210],10.8 ± 0.33
12,GAAAGACAAATTGTGACACACACAAAAAAAAAAAAA [CACACA_site9241],10.4 ± 0.67
13,TCAAATAATTTGTTGACACACACACCCACATACATA [CACACA_site8717],10.6 ± 0.45
14,ATATTTTTTACTATTACACACAAGGGATTATTATTT [CACACA_site3915],10.02 ± 0.078
15,ACCTTATAAAAAAAAAGTACATATATAAATAATAAA [XGTACX_site4338],11.5 ± 1
16,AAACAATAAAAGATTACACACATATATAGCATATAT [CACACA_site1698],9.8 ± 0.099
17,TATACATAATATATATGTACATATATTCTTTATTTT [XGTACX_site4565],11.1 ± 0.64
18,TGGAGGATAGTTCACAGTACCCAGAAACTCTACGGA [XGTACX_site2560],10.8 ± 0.57
19,AACCATAAATAATTATGTACTAAAAAAAATATATAT [XGTACX_site3415],11.2 ± 0.73

row,Sequence,gcPBM binding intensity (ln)
1,TTTTTGATGAAATATTATTTTCCTGACTTGGATTAA [CACACA_negctrl_site148],9.7 ± 0.028
2,GAAATGGAAAAATATACATGCGCATATAAATTAATA [TGCATGCA_site834],9.72 ± 0.099
3,ATAATATATTTATGTTGTACAAGGAAAATTTTGAAA [XGTACX_site3472],11.3 ± 0.74
4,TATAATGATATAACAACACACATGTATGTATTATTA [CACACA_site230],9.845 ± 0.049
5,ATCATATGTATGCATACACACAAAAAATTATATATA [CACACA_site398],10 ± 0.13
6,TTATTTATGATATATACACACTAACATTATTTATCC [CACACA_site6720],9.895 ± 0.064
7,TCTTATATATGCTTAAATATATTATATTTATTTGAA [CACACA_negctrl_site1757],9.56 ± 0.11
8,TTTTTCTTCTGCATTATGCACACTATAATTCGTTAA [CACACA_site2837],10.1 ± 0.11
9,TATAGATACCTATACACACACACACGGACATATATA [CACACA_site7585],10.9 ± 0.49
10,ATATAAAACAACGGGTGTACAAAAAAATAAATAATA [XGTACX_site4094],11.3 ± 0.76
11,AAAGAAATGAAATATACACACATACCTATATACATA [CACACA_site7817],9.88 ± 0.16
12,TTTTTAATATATAAAGATAATAATAAATAAAATTCA [CACACA_negctrl_site657],9.46 ± 0.12
13,TATATATTTATATATGCATGTACATTTTTATTTATT [TGCATGCA_site1048],11 ± 0.48
14,TTAAAATCTTGAAAAGTGCATTATCATTTTGTAACG [GTGCAC_site9447],9.9 ± 0.11
15,TATAATGATGATGATAGTACGTATGAGTTCAAAAAA [XGTACX_site3656],11.1 ± 0.64
16,GGGTATAATAAAAGCACACACAAAGATATAAATATA [CACACA_site3308],10.1 ± 0.21
17,AAAAAAAAAAAACACGCATGTACATAAAAATAATCA [TGCATGCA_site142],11.2 ± 0.49
18,TTTTTTTTTTTTAATTAACACACATAAATATATATA [CACACA_site9077],9.89 ± 0.29
19,CTGAATGTATATATTTGTACATATATATATATATAT [XGTACX_site5557],11.1 ± 0.97

row,Sequence,gcPBM binding intensity (ln)
1,TGTGTATATGTGCAAAGTACAAAAAAGAAATTATTT [XGTACX_site7569],10.8 ± 0.51
2,AATATATGGTTCCTTGATATTAAATTCAATTTAATG [CACACA_negctrl_site71],10.3 ± 0.2
3,TAAATCTATATCATCACACACACATACATAAATATA [CACACA_site6228],10.1 ± 0.15
4,TAGTATTGTAAAAAAAAAAAAGAAAAAAAAAAAAAA [CACACA_negctrl_site977],9.68 ± 0.15
5,GTGGAAAAAAATAATTGTACACAATAATAAATATAT [XGTACX_site2414],11.3 ± 0.69
6,TGGATGTTAATATAGTGTACATTTATAAGTCAGTAT [XGTACX_site2949],11.1 ± 0.62
7,CACTAAACATATACACGTACATGCAACGGATTTTTT [XGTACX_site461],11.3 ± 0.76
8,ACCTTTATTGTATGAACACACATAAGCTGATACATC [CACACA_site4028],10.2 ± 0.11
9,GAAAAAAAATCCAAGATGCACTATTATTACAAAAAT [GTGCAC_site9516],10.02 ± 0.014
10,GTCAAAAGTTTTTAAGGTACACTTATTTTATTATAA [XGTACX_site7004],11.4 ± 0.96
11,ATGTAATATATGCGGAAATATATTCACAAGACGTCA [CACACA_negctrl_site373],9.94
12,TATAAAAAAAATTGCACACATATTATACAGGACGAC [CACACA_site701],10.5 ± 0.2
13,TGTATATATCAATGTACACACATGCGTATGTTCGTT [CACACA_site7654],11.1 ± 0.67
14,AAAATATATATAACTTGTACATATACATACGTATAT [XGTACX_site4570],11 ± 0.67
15,ATACATAATAACTCCTGTACTTAAAAATGTATATAT [XGTACX_site1071],11.3 ± 0.83
16,TAAAAAAAAACATGTGCACACGTTTTATCTACATAA [CACACA_site2336],10.3 ± 0.25
17,AATTATAAATTGGACACACACATAAAAAATATGTAC [CACACA_site221],11.6 ± 0.8
18,TAAAGGAAATAAAAAACATGCAAATATGAAATATAT [TGCATGCA_site745],9.88 ± 0.12
